Where “and” joins values, the source holds several entries; their conditions need not be identical. Identical values can stand only once. Hit rate of the full screen: of about 390,000 compounds, about 1,400 (0.36%) were called active. Inconclusive results, whose numbers are uncertain, are shown with a selection of clear calls. Calls follow the shape of the dose curve; as a rule, active = well fitted inhibition curve with a large enough effect; inconclusive = small, poorly fitted or top-dose-only effect; inactive = no such curve, though single readings can be large or run the other way. Where the call is inconclusive, the potency comes from a doubtful curve fit.
molecular target: Flap endonuclease 1 (Homo sapiens) (UniProt P39748); test: qHTS Assay for the Inhibitors of Human Flap endonuclease 1 (FEN1).; also: nearly all actives have a fitted effect of over 65% in size; conditions: Recombinant FEN1 flap cleavage, fluorescence, 15 min; series mostly up to 114 µM; activity change, negative = inhibition: at the top concentration
Method in brief: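 Recombinant FEN1 (10 nM) was preincubated with pin-transferred compounds for 15 min at room temperature, then flap DNA substrate (50 nM final) was added. Plates were read at 0 and 15 min, and normalized concentration–response data were fitted to a four-parameter Hill equation.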
% is scaled to controls: 0 for no effect and ±100 for the full control effect; potency is read from the fitted curve at half-maximal effect; tags tell the direction and shape of the fitted curve.

UniProt P39748, sequence (P39748 whole entry, looked up): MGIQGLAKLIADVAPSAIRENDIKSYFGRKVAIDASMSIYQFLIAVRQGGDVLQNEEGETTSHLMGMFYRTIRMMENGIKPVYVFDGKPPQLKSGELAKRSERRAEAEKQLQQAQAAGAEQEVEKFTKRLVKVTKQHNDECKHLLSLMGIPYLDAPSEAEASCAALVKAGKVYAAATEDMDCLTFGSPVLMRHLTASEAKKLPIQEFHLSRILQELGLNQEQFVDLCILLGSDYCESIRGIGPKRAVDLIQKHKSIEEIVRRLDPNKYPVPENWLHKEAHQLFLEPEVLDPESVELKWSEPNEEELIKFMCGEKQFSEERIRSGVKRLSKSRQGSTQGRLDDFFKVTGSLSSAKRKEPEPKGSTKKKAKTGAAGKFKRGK

Structure (SMILES) | activity change, negative = inhibition | Potency
CCN(c1ncnc2c1c(-c1ccccc1)cn2-c1ccccc1)C1CCCCC1 | inactive: 3.06% | –
Cn1c(SCc2ccc3c(c2)OCO3)nnc1-c1ccccc1 | – | inconclusive: 35.5 µM [inhibitor, single point]
CC(C)OC(=O)C(C(=O)C(F)(F)F)c1cc(NS(=O)(=O)c2ccc3ccccc3c2)c2ccccc2c1O (centres undefined) | – | inconclusive: 25.1 µM [inhibitor, partial curve, poor fit]
O=C(Nc1ccc2c(c1)OCCO2)c1coc2ccccc2c1=O | inactive: 2.32% | –
O=c1cc(-c2ccc(O)c(O)c2)oc2c1ccc1ccccc12 | – | inconclusive: 14.1 µM [inhibitor, full curve, poor fit]
Cc1ccc(NS(=O)(=O)c2ccc(NC(=O)C(C)Sc3ccc(Cl)cc3)cc2)c(C)c1 (centres undefined) | – | inconclusive: 8.91 µM [inhibitor, partial curve, poor fit]
CC(C)c1ccc(S(=O)(=O)N2CCC(C(=O)N3CCN(c4cccc(Cl)c4)CC3)CC2)cc1 | – | inconclusive: 89.1 µM [inhibitor, single point]
COc1ccc(CN2C(=O)c3cccnc3C2=O)cc1S(=O)(=O)N(C)Cc1ccco1 | inactive: -1.73% | –
CC1CCN(c2ccc3nnc(CCC(=O)N4CCCCC4)n3n2)CC1 | – | inconclusive: 89.1 µM [inhibitor, single point]
O=[N+]([O-])c1nn(-c2ccc3c(c2)OCCO3)n(O)c1=NC1CCCCCC1 | – | inconclusive: 100 µM [inhibitor, partial curve, poor fit]
O=c1cc(-c2ccccc2)oc2cc(O)c(O)c(O)c12 | – | active: 17.8 µM and active: 35.5 µM
O=C(NNC(=S)Nc1ccccc1)c1ccncc1 | inactive: -1.01% | –
COc1ccc(NC(=O)c2ccc(-c3cccc(Cl)c3C)o2)cc1 | – | inconclusive: 89.1 µM [inhibitor, partial curve, poor fit]
CN(C)CCn1nnnc1SCC1=C(C(=O)O)N2C(=O)[C@@H](NC(=O)Cc3csc(N)n3)[C@H]2SC1 | – | inconclusive: 39.8 µM [inhibitor, partial curve, poor fit]
Cc1ccc(/C=C2/SC(=S)N(c3ccc(S(=O)(=O)Nc4nccs4)cc3)C2=O)cc1 | – | inconclusive: 89.1 µM [inhibitor, single point]
CCOc1ccc(CNC(=O)C2CCN(c3nnc(C)c4c(C)n(-c5ccc(C)cc5)nc34)CC2)cc1 | – | inconclusive: 44.7 µM [inhibitor, partial curve]
NNC(=O)c1oc2nc(-c3ccccc3)cc(-c3ccco3)c2c1N | – | inconclusive: 89.1 µM [inhibitor, single point]
COc1cc(NS(=O)(=O)c2ccc(NC(=S)NC(=O)c3sc4cc(F)ccc4c3Cl)cc2)nc(OC)n1 | – | inconclusive: 79.4 µM [inhibitor, partial curve, poor fit]
C=CCNc1nnc(Cc2ccc(C(C)C)cc2)c(=O)[nH]1 | inactive: 3.42% | –
O=C(/C=C/c1ccco1)Nc1ccccc1C(=O)Nc1cccc(C(=O)O)c1 | inactive: -32% | –
NS(=O)(=O)Nc1c(Br)cc(Br)c2cccnc12 | – | inconclusive: 8.91 µM [inhibitor, full curve]
Cc1cc2cc(CNC(=O)c3ccc(S(=O)(=O)N(C)C)cc3)ccc2n1C | – | inconclusive: 28.2 µM [inhibitor, single point]

Structure (SMILES) | activity change, negative = inhibition | Potency
CC1(c2ccccc2)CC(C)(C)N2C(=O)C3(C(C#N)=C(N)Oc4cc(O)ccc43)c3cccc1c32 (centres undefined) | – | inconclusive: 50.1 µM [inhibitor, partial curve, poor fit]
Cc1c(C)n(C)c2ccc(C(=O)NCCCN3CCCCC3)cc12 | – | inconclusive: 44.7 µM [inhibitor, partial curve, poor fit]
O=c1nc2s/c(=C\c3ccco3)c(=O)n2nc1Cc1ccccc1 | – | inconclusive: 89.1 µM [inhibitor, single point]
COc1ccccc1N1CCN(C(c2ccccc2)c2nnnn2Cc2ccccc2)CC1 (centres undefined) | inactive: -26.1% | –
CC(C)(C)NC(=O)NC(=O)COc1ccc(Br)cc1Br | – | inconclusive: 89.1 µM [inhibitor, partial curve, poor fit]
COc1ccc(-c2nnc(SCC(=O)Nc3ccc(F)cc3)s2)cc1 | inactive: 5.22% | –
CCN(c1ccccc1)S(=O)(=O)c1ccc(C(=O)Nc2ccccc2OC)cc1 | – | inconclusive: 89.1 µM [inhibitor, partial curve, poor fit]
c1ccc(OCCSc2nnnn2C2CCCCC2)cc1 | – | inconclusive: 89.1 µM [inhibitor, partial curve, poor fit]
CN(C)c1ccc(NC(=O)Cn2c(SCc3ccccc3F)nc3cccnc32)cc1 | inactive: 1.27% | –
COc1ccc(CN(CC(O)COCc2ccccc2)S(=O)(=O)c2ccccc2Br)cc1OC (centres undefined) | – | inconclusive: 79.4 µM [inhibitor, partial curve, poor fit]
CC1CCCC(C)N1C(=O)COC(=O)c1ccc([N+](=O)[O-])o1 (centres undefined) | – | inconclusive: 22.4 µM [inhibitor, full curve]
CC1=CC(=C(c2ccc(N)cc2)c2ccc(N)cc2)C=CC1=N | – | inconclusive: 25.1 µM [inhibitor, full curve]
COc1ccc(NC(=O)Cc2csc(C)n2)cc1 | inactive: 3.98% | –
COc1ccc(SCCN2CC[C@@H](C(C)(C)C)CCC2=O)cc1 | – | inconclusive: 89.1 µM [inhibitor, partial curve, poor fit]
CN1c2ccccc2Oc2nnc(N3CCN(Cc4ccccc4)CC3)cc21 | – | inconclusive: 89.1 µM [inhibitor, partial curve, poor fit]
O=C(O)COc1ccc(/C=C/C(=O)c2ccc3ccccc3c2)cc1 | inactive: -7.79% | –
Cc1cc(C)cc(NC(=O)Cn2nnc(C(=O)Nc3cc(C)cc(C)c3)c2N)c1 | inactive: 6.12% | –
Cc1cc(C)c(C#N)c(N2CCN(c3ccc(F)cc3)CC2)n1 | – | inconclusive: 79.4 µM [inhibitor, partial curve, poor fit]
Cc1cccc(N2CCN(C(=O)c3cc4ccccc4oc3=O)CC2)c1C | – | inconclusive: 44.7 µM [inhibitor, partial curve, poor fit]
CC(=O)Nc1ccc(S(=O)(=O)Nc2ccc(S(=O)(=O)N3CCCC3)cc2)cc1 | inactive: 4.81% | –
Cc1cc(/C=C/c2nc3ccccc3s2)ccc1N(C)C | – | inconclusive: 56.2 µM [inhibitor, partial curve, poor fit]
CN(Cc1ccc(C(C)(C)C)cc1)C(=O)c1ccc2c(c1)OCO2 | – | inconclusive: 79.4 µM [inhibitor, partial curve, poor fit]

Structure (SMILES) | activity change, negative = inhibition | Potency
COc1ccc(CNC(=O)CCCc2cn(C)c3ccccc23)c(OC)c1 | inactive: -18.6% | –
O=C1C(=Cc2ccc(Br)o2)C(=O)c2ccccc21 | – | active: 14.1 µM
CCCN1C(=O)/C(=C/C=C2\N(CC)c3ccccc3C2(C)C)SC1=S | – | inconclusive: 10 µM [inhibitor, full curve]
COc1cc(OC)c(-c2c3cc(O)c(=O)cc-3oc3cc(O)c(O)cc23)cc1OC | – | active: 50.1 µM
Cc1ccc(S(=O)(=O)/N=C2/NC(=O)/C(=C/c3cc([N+](=O)[O-])ccc3O)S2)cc1 | – | inconclusive: 56.2 µM [inhibitor, partial curve, poor fit]
COc1cc(/C=N/NC(=O)c2ccccc2O)ccc1OCC(=O)Nc1ccccc1 | – | inconclusive: 22.4 µM [inhibitor, full curve]
CCc1ccc(NC(=O)N(Cc2ccc(C)cc2)Cc2cccn2-c2nnc(N3CCCC3=O)s2)cc1 | inactive: -21.3% | –
Cn1c2ccccc2c2cc(/C=N/NC(=O)c3cc(O)ccc3O)ccc21 | – | active: 56.2 µM
O=C(NCc1nc(-c2ccc(C(F)(F)F)cc2)no1)Nc1cc(Cl)cc(Cl)c1 | – | inconclusive: 0.708 µM [inhibitor, full curve, poor fit]
Oc1ccc(Nc2nc(-c3ccccc3)nc3ccccc23)cc1 | – | inconclusive: 56.2 µM [inhibitor, partial curve, poor fit]
O=C1CC(c2ccco2)CC(O)=C1C=Nc1cc(Cl)cc(Cl)c1 (centres undefined) | – | inconclusive: 79.4 µM [inhibitor, partial curve, poor fit]
c1ccc(-c2cc(NCCN3CCCCC3)c3ccccc3n2)cc1 | – | inconclusive: 50.1 µM [inhibitor, partial curve, poor fit]
CC1=C([N+](=O)[O-])C(c2ccccc2)C2=C(N1)c1ccccc1C2=O (centres undefined) | – | inconclusive: 28.2 µM [inhibitor, partial curve, poor fit]
Cc1c(C(=O)N2CCC(C)CC2)c(S(=O)(=O)N2CCN(c3ccc(Cl)cc3)CC2)c(C)n1C | inactive: -14.1% | –
CC(C)C[C@H](NC(=O)c1nc[nH]c1C(=O)NCCCCCN)C(=O)OCc1ccccc1 | – | inconclusive: 89.1 µM [inhibitor, single point]
Cc1nn2c3ccccc3nc2c2ccccc12 | – | inconclusive: 44.7 µM [inhibitor, partial curve]
CCC1=NN2C(=N)/C(=C\c3ccc(OCc4cc(=O)n5nc(CC)sc5n4)c(OC)c3)C(=O)N=C2S1 | – | active: 50.1 µM
CN1/C(=C\C(=O)COC(=O)c2ccc(O)c(O)c2)C(C)(C)c2ccccc21 | inactive: 6.67% | –
O=C(/C=C(\O)c1ccccc1)C(=O)NNC(=O)c1ccccc1 | – | inconclusive: 28.2 µM [inhibitor, full curve, poor fit]
COc1ccc2cc3cc(C(=O)NCCc4ccc(OC)c(OC)c4)oc3nc2c1 | – | inconclusive: 89.1 µM [inhibitor, partial curve, poor fit]

Reference: PubChem BioAssay AID588795 (National Center for Advancing Translational Sciences (NCATS), 2011)
